The test system of assay [1] is RAW-Dual. Put plainly: IRF Lucia reporter activity, fold change vs agonist alone; higher = enhanced IRF activity. As to conditions: library stock concentration (final ~1000-fold dilution): 10 mM, agonist: MPLA (TLR4) […]. An outline of the steps:
(§1)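 RAW-Dual macrophages were seeded in DMEM at 50,000 cells/well in 384-well plates, given 50 nL of library stock by pin tool, and given a PRR agonist 1 h later. Plates were held at 37 °C, 5% CO2 for 20 hours, after which supernatant was read for IRF by QuantiLuc luminescence and for NF-κB by QuantiBlue absorbance at 620 nm. Reporter activity is expressed as fold change over wells that received agonist alone. A well was called cytotoxic when IncuCyte confluency fell below 70% of agonist controls in both mask sets.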

Assay [2] has as its system RAW-Dual. Briefly: IRF Lucia reporter activity, fold change vs agonist alone; cytotoxicity flag (confluency mask): cytotoxic (confluency <70% of control); higher = enhanced IRF activity. An outline of the steps:
as §1

Assay [3] concerns RAW-Dual. Put plainly: IRF Lucia reporter activity, fold change vs agonist alone; cytotoxicity flag (confluency mask): not cytotoxic; higher = enhanced IRF activity. An outline of the steps: as §1
Setting [4] is: cytotoxicity flag (confluency mask): cytotoxic (confluency <70% of control).
Where [5] appears, read: agonist: 3'3'-cGAMP (STING) 10 ug/mL.
Where [6] appears, read: cytotoxicity flag (confluency mask): not cytotoxic.

Several values for one entry are separate records, joined by “and”; a condition that tells them apart may be missing. Equal values may be shown once. Over roughly 2,900 compounds, “IRF Lucia reporter activity, fold change vs agonist alone” has its median near 0.9; the highest 2% begin near 2.8. Some of the results follow.

For `CC(=O)OCC1OC([S-])C(OC(C)=O)C(OC(C)=O)C1OC(C)=O.CCP(CC)CC.[Au+]` (configuration not stated), in the assay with RAW-Dual [1] (setting [4]), the “IRF Lucia reporter activity” value was determined as 0.0231.

In the case of `CC(=O)OCC1OC([S-])C(OC(C)=O)C(OC(C)=O)C1OC(C)=O.CCP(CC)CC.[Au+]` (configuration not stated) (library stock concentration (final ~1000-fold dilution): 10 mM), the entries for the “IRF Lucia reporter activity” value with RAW-Dual [2] (setting [5]) and in the assay with RAW-Dual [2] (agonist: LPS (TLR4) 0.1 ug/mL) were 0.0169 and 0.0188, respectively.

Turning to `COC1CC2CCC(C)C(O)(O2)C(=O)C(=O)N2CCCCC2C(=O)OC(C(C)CC2CCC(OP(C)(C)=O)C(OC)C2)CC(=O)C(C)C=C(C)C(O)C(OC)C(=O)C(C)CC(C)C=CC=CC=C1C` (configuration not stated) (library stock concentration (final ~1000-fold dilution): 10 mM), the “IRF Lucia reporter activity” value in the assay on RAW-Dual [3] (setting [5]) was 1.03; with RAW-Dual [3] (agonist: LPS (TLR4) 0.1 ug/mL), 1.6.

Turning to `COC1CC2CCC(C)C(O)(O2)C(=O)C(=O)N2CCCCC2C(=O)OC(C(C)CC2CCC(OP(C)(C)=O)C(OC)C2)CC(=O)C(C)C=C(C)C(O)C(OC)C(=O)C(C)CC(C)C=CC=CC=C1C` (configuration not stated), in the assay on RAW-Dual [1] (setting [6]), the “IRF Lucia reporter activity” value came out at 1.24.

Consider `Cl.Nc1ccc(N=Nc2ccccc2)c(N)n1`, for which the “IRF Lucia reporter activity” value with RAW-Dual [1] (setting [6]) was 0.989.

Consider `Cl.Nc1ccc(N=Nc2ccccc2)c(N)n1` (library stock concentration (final ~1000-fold dilution): 10 mM), for which the entries for the “IRF Lucia reporter activity” value in the assay on RAW-Dual [3] (setting [5]) and with RAW-Dual [3] (agonist: LPS (TLR4) 0.1 ug/mL) were 0.305 and 0.976, respectively.

Consider `CC(C)c1nc(CN(C)C(=O)NC(C(=O)NC(Cc2ccccc2)CC(O)C(Cc2ccccc2)NC(=O)OCc2cncs2)C(C)C)cs1` (configuration not stated) (library stock concentration (final ~1000-fold dilution): 10 mM), for which the “IRF Lucia reporter activity” value worked out at 0.757 in the assay with RAW-Dual [3] (setting [5]) and 1.34 in the assay with RAW-Dual [3] (agonist: LPS (TLR4) 0.1 ug/mL).

Regarding `CC(C)c1nc(CN(C)C(=O)NC(C(=O)NC(Cc2ccccc2)CC(O)C(Cc2ccccc2)NC(=O)OCc2cncs2)C(C)C)cs1` (configuration not stated), the “IRF Lucia reporter activity” value in the assay on RAW-Dual [1] (setting [6]) was determined as 1.07.

`CCn1c(-c2nonc2N)nc2cnc(Oc3cccc(NC(=O)c4ccc(OCCN5CCOCC5)cc4)c3)cc21.Cl` (library stock concentration (final ~1000-fold dilution): 10 mM): the “IRF Lucia reporter activity” value was 0.0316 in the assay with RAW-Dual [3] (setting [5]) and 0.297 in the assay on RAW-Dual [3] (agonist: LPS (TLR4) 0.1 ug/mL).

As to `CCN1CCN(Cc2ccc(C(=O)Nc3ccc(C)c(Oc4ccc5c(c4)CC(=O)N5)c3)cc2C(F)(F)F)CC1` (library stock concentration (final ~1000-fold dilution): 10 mM), the entries for the “IRF Lucia reporter activity” value with RAW-Dual [2] (setting [5]) and with RAW-Dual [2] (agonist: LPS (TLR4) 0.1 ug/mL) were 0.212 and 0.665, respectively.

For `CCN1CCN(Cc2ccc(C(=O)Nc3ccc(C)c(Oc4ccc5c(c4)CC(=O)N5)c3)cc2C(F)(F)F)CC1`, in the assay on RAW-Dual [1] (setting [4]), the “IRF Lucia reporter activity” value stood at 0.48.

Regarding `CS(=O)(=O)O.Cc1ccc(N(CC2=NCCN2)c2cccc(O)c2)cc1` (library stock concentration (final ~1000-fold dilution): 10 mM), the “IRF Lucia reporter activity” value in the assay with RAW-Dual [3] (setting [5]) came to 0.803; with RAW-Dual [3] (agonist: LPS (TLR4) 0.1 ug/mL) it was 0.89.

As to `CS(=O)(=O)O.Cc1ccc(N(CC2=NCCN2)c2cccc(O)c2)cc1`, the “IRF Lucia reporter activity” value with RAW-Dual [1] (setting [6]) was 0.907.

Regarding `CC1=NN(c2ccc(C)c(C)c2)C(=O)/C1=N\Nc1cccc(-c2cccc(C(=O)O)c2)c1O.NCCO.NCCO`, the “IRF Lucia reporter activity” value in the assay on RAW-Dual [1] (setting [6]) amounted to 1.11.

`CC1=NN(c2ccc(C)c(C)c2)C(=O)/C1=N\Nc1cccc(-c2cccc(C(=O)O)c2)c1O.NCCO.NCCO` (library stock concentration (final ~1000-fold dilution): 10 mM): the “IRF Lucia reporter activity” value is 0.71 in the assay with RAW-Dual [3] (setting [5]) and 1.31 in the assay on RAW-Dual [3] (agonist: LPS (TLR4) 0.1 ug/mL).

Regarding `CC(=O)OC1CCC2(C)C(=CCC3C2CCC2(C)C(c4cccnc4)=CCC32)C1` (configuration not stated) (library stock concentration (final ~1000-fold dilution): 10 mM), the “IRF Lucia reporter activity” value came out at 0.849 in the assay with RAW-Dual [3] (setting [5]) and 0.775 with RAW-Dual [3] (agonist: LPS (TLR4) 0.1 ug/mL).

As for `CC(=O)OC1CCC2(C)C(=CCC3C2CCC2(C)C(c4cccnc4)=CCC32)C1` (configuration not stated), in the assay with RAW-Dual [1] (setting [6]), the “IRF Lucia reporter activity” value came out at 1.33.

Consider `CCOC(=O)/C=C/c1ccc(O)c(O)c1`, for which the “IRF Lucia reporter activity” value with RAW-Dual [1] (setting [6]) was 0.597.

For the compound `CCOC(=O)/C=C/c1ccc(O)c(O)c1` (library stock concentration (final ~1000-fold dilution): 10 mM), the “IRF Lucia reporter activity” value with RAW-Dual [3] (setting [5]) was 0.0622 and 0.0316; with RAW-Dual [3] (agonist: LPS (TLR4) 0.1 ug/mL), 0.528 and 0.823.

`NC(=O)c1ccc(OCCCN2CC3CCCC3C2)cc1` (configuration not stated) (library stock concentration (final ~1000-fold dilution): 10 mM): the “IRF Lucia reporter activity” value in the assay on RAW-Dual [3] (setting [5]) turned out to be 1.05; in the assay with RAW-Dual [3] (agonist: LPS (TLR4) 0.1 ug/mL) it was 1.13.

Turning to `O=C(Oc1cc(S(=O)(=O)c2ccccc2)ccc1[N+](=O)[O-])c1ccc(Cl)cc1`, the “IRF Lucia reporter activity” value with RAW-Dual [1] (setting [6]) turned out to be 0.734.

In the case of `O=C(Oc1cc(S(=O)(=O)c2ccccc2)ccc1[N+](=O)[O-])c1ccc(Cl)cc1` (library stock concentration (final ~1000-fold dilution): 10 mM), the results for the “IRF Lucia reporter activity” value in the assay on RAW-Dual [3] (setting [5]) and in the assay with RAW-Dual [3] (agonist: LPS (TLR4) 0.1 ug/mL) were 0.289 and 0.367, respectively.

With `O=C(O)/C=C\C(=O)O.O=C(c1ccc(OCCCc2c[nH]cn2)cc1)C1CC1` (library stock concentration (final ~1000-fold dilution): 10 mM), the results for the “IRF Lucia reporter activity” value in the assay on RAW-Dual [3] (setting [5]) and in the assay on RAW-Dual [3] (agonist: LPS (TLR4) 0.1 ug/mL) were 1.11 and 0.839, respectively.

Take `O=C(O)/C=C\C(=O)O.O=C(c1ccc(OCCCc2c[nH]cn2)cc1)C1CC1`: the “IRF Lucia reporter activity” value in the assay with RAW-Dual [1] (setting [6]) turned out to be 1.08.

With `COC(=O)C1=C(C#N)NC(C)=C(C(=O)OC(C)C)C1c1cccc([N+](=O)[O-])c1` (configuration not stated) (library stock concentration (final ~1000-fold dilution): 10 mM), the “IRF Lucia reporter activity” value turned out to be 1.12 in the assay on RAW-Dual [2] (setting [5]) and 1.33 in the assay with RAW-Dual [2] (agonist: LPS (TLR4) 0.1 ug/mL).

As for `COC(=O)C1=C(C#N)NC(C)=C(C(=O)OC(C)C)C1c1cccc([N+](=O)[O-])c1` (configuration not stated), the “IRF Lucia reporter activity” value in the assay with RAW-Dual [1] (setting [4]) amounted to 1.97.

`CC(C)(O)CNc1ncc(-c2ccnc(Nc3ccnc(Cl)c3)n2)c(CC2CC2)n1` (library stock concentration (final ~1000-fold dilution): 10 mM): the results for the “IRF Lucia reporter activity” value in the assay with RAW-Dual [3] (setting [5]) and in the assay on RAW-Dual [3] (agonist: LPS (TLR4) 0.1 ug/mL) were 0.0702 and 3.2, respectively.

Source of the values: the supplement of paper PMC10037445.
